Among all 350,000 compounds or so, about 2,100 (0.6%) were called active. The shares of active, inactive and inconclusive entries below differ from those in the screen.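 The calls were made as follows: active = activity change of -60% or lower, but not beyond a set lower limit; inconclusive = change between -60% and -40%, or beyond the set limit; inactive = change above -40%.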
Each compound was assayed against Relaxin receptor 1 (Homo sapiens) (UniProt Q9HBX9) (assay: qHTS Assay for Antagonists of the Relaxin Receptor RXFP1). Conditions: HEK293-RXFP1, relaxin-stimulated cAMP HTRF, 30 min; at 57.5 µM; stronger effect = lower value.
UniProt Q9HBX9, sequence (Q9HBX9 whole entry, looked up): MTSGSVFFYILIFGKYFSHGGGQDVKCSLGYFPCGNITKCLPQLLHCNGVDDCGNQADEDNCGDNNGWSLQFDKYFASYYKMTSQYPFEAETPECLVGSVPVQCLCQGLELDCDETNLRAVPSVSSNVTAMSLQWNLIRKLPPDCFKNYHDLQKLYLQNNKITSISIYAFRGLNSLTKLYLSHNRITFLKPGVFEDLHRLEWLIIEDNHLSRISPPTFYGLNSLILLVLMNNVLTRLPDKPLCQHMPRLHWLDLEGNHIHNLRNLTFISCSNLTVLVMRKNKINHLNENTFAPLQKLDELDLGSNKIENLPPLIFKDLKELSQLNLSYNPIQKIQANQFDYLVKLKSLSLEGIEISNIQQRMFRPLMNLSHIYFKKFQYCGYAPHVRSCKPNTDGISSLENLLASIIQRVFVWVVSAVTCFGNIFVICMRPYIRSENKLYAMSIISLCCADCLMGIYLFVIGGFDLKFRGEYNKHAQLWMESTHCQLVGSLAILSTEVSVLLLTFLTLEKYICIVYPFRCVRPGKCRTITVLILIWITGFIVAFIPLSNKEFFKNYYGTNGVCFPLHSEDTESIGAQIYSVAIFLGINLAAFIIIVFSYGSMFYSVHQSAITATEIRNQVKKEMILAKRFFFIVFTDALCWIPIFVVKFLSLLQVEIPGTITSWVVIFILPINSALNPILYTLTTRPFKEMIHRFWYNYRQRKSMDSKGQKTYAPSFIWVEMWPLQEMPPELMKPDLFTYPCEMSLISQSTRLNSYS
% is scaled to controls: 0 for no effect and ±100 for the full control effect.

Structure (SMILES)	activity change, negative = inhibition
COc1ccc(-c2csc(NC(=O)CSCC(=O)Nc3cc(C)on3)n2)cc1	inactive: -6.72%
COc1ccc(N2C(=O)CCSC23C(=O)N(Cc2ccc(F)cc2)c2ccccc23)cc1Cl (configuration not stated)	inconclusive: -53.2%
COC(=O)c1c(NC(=S)Nc2ccc(CC(=O)O)cc2)sc(C)c1C	active: -62.8%
CN(C)S(=O)(=O)c1ccc(-c2csc(N/N=C/c3ccc(O)cc3)n2)cc1	inconclusive: -44.2%
O=C(NCCc1ccccc1)c1ccc2nc(-c3ccco3)c(-c3ccco3)nc2c1	inactive: -6.07%
CC(C)(C)c1ccc(C(=O)NCC(=O)OCCN2C(=O)c3ccccc3C2=O)cc1	inconclusive: -45.9%
CCn1c(=NC(=O)CSC(C)=O)sc2cc(F)ccc21	inconclusive: -40.8%
COc1cc(CCC(=O)OCC(=O)Nc2ccccc2OC(F)F)cc(OC)c1OC	inactive: -15%
COc1ccc(OCC(=O)NNC(=O)c2ccccc2OCc2c(C)noc2C)cc1	inconclusive: -57.6%
COc1ccc(C2NCCc3c2[nH]c2ccccc32)cc1COc1ccc(F)cc1 (configuration not stated)	inconclusive: -41.9%
CN(C)CCCNc1nc2sc3c(c2c(=O)n1CCc1ccccc1)CCCCC3	inconclusive: -41%
CCOc1nc(Nc2ccc(F)cc2)nc(N2CCN(c3ccc(OC)cc3)CC2)n1	inactive: -4.4%
CN(C)CCCNC(=S)N(Cc1cccs1)Cc1cc2cc3c(cc2[nH]c1=O)OCCO3	active: -62.7%
O=C(O)c1ccccc1CSc1ccccn1	inconclusive: -40.8%
Cc1ccc(-n2cc(CN(C)Cc3nccn3C)c(-c3ccc(F)cc3)n2)cc1	inconclusive: -50.8%
COc1cc(/C=N/NS(=O)(=O)c2ccc3ccccc3c2)ccc1OCc1ccc(C(=O)O)cc1	inconclusive: -40.7%
CCC(C)c1ccc(-n2c(=O)c3ccccc3n3c(=S)[nH]nc23)cc1 (configuration not stated)	inconclusive: -45.4%
CCc1ccc(NC(=O)c2ccc(Cn3nc(N4CCN(c5ccccc5)CC4)ccc3=O)o2)cc1	inconclusive: -51.1%
CC(C)OC(=O)c1ccc(NCc2cc(O)ccc2O)cc1	active: -63.5%
CCc1ccc(-c2nc(CN3CCC(C(=O)NCCN(CC)c4ccccc4)CC3)c(C)o2)cc1	inactive: -6.67%
Cc1ccc2[nH]cc(C(c3ccccc3)c3ccc(Cl)s3)c2c1 (configuration not stated)	inconclusive: -43.2%

Structure (SMILES)	activity change, negative = inhibition
CCOC(=O)c1c(C)[nH]c(C)c1S(=O)(=O)N1CCCC(C(=O)N2CCN(c3cccc(Cl)c3)CC2)C1 (configuration not stated)	inactive: -1.17%
Cn1c(O)c(/C=N/NC(=O)c2cc3ccccc3cc2O)c2ccccc21	inconclusive: -41.9%
O=C(CCc1nc2ccccc2c(=O)[nH]1)Nc1nc(-c2cccs2)cs1	inconclusive: -57.5%
O=C(COc1ccc(Br)cc1Br)NN1C(=O)c2ccccc2C1=O	inconclusive: -45.3%
COc1ccc(-c2n(CC(=O)OC3CC(C)CCC3C(C)C)c3ccccc3[n+]2C)cc1 (configuration not stated)	inconclusive: -57.9%
CCN(CC)S(=O)(=O)c1cc([N+](=O)[O-])ccc1NNC(=O)Nc1ccc(Cl)c(Cl)c1	inactive: -7.74%
CC(C)OCCCn1c(-c2ccc(Br)cc2)c[nH]c1=S	inconclusive: -45.6%
CC(C)(C)OC(=O)N1CCC(c2c(C(=O)N3CCN(c4ccccn4)CC3)cnn2-c2cccc(F)c2)CC1	inactive: -8.1%
CCOC(=O)N1CCc2c(sc(NCc3cccs3)c2C(=O)Nc2cc(Cl)ccc2OC)C1	inconclusive: -47.9%
Cc1ccnc(NS(=O)(=O)c2ccc(N3C(=O)C4CCCCC4C3=O)cc2)n1 (configuration not stated)	inconclusive: -42.9%
COc1cc(NC(=O)c2cnc(N)o2)cc(C(=O)Nc2cccc(C(F)(F)F)c2)c1	inconclusive: -53.6%
COc1ccccc1C(=O)NCCSc1c(C)[nH]c2ccccc12	inconclusive: -45.8%
CC1=Nc2cc(C(=O)NCc3ccc(C)cc3)ccc2Sc2ccc(Cl)cc21	inconclusive: -40.4%
CN(Nc1cccc(Cl)c1)c1cccc(Cl)c1	inconclusive: -41.8%
COc1ccc(NC(=O)NNC(=O)COc2ccc3ccccc3c2)cc1OC	inconclusive: -46.3%
COc1ccccc1NC(=O)Cn1cnc2sc(C(=O)Nc3ccc(OC)c(OC)c3)c(C)c2c1=O	active: -71.3%
Cc1[nH][nH]c(=O)c1C(c1ccc(Br)cc1)c1c(C)[nH][nH]c1=O	inconclusive: -41.3%
Cc1ccc(-c2noc(CCC(=O)NCCCN3CCN(c4cccc(Cl)c4)CC3)n2)cc1	active: -64%
O=c1[nH]c2cc3c(cc2cc1CN(CCO)S(=O)(=O)c1ccccc1Cl)OCCO3	inactive: 0.946%
COc1ccc(/C=C/c2nc(-c3ccccc3O)n(-c3ccccc3)n2)cc1OC	inconclusive: -58.1%
CC(C)CN(C(=O)CSc1nncn1-c1ccccc1)c1c(N)n(CC(C)C)c(=O)[nH]c1=O	active: -60.1%

Structure (SMILES)	activity change, negative = inhibition
CC(=O)c1cccc(NC(=O)NC2CC(=O)N(c3ccc4c(c3)OCCO4)C2)c1 (configuration not stated)	inactive: -4.02%
COc1ccccc1NS(=O)(=O)c1cccc(NC(=O)Nc2cccc(Cl)c2)c1	inconclusive: -40.8%
O=C(C1CCN(S(=O)(=O)c2ccc(-n3cnnn3)cc2)CC1)N1CCN(c2ccccc2)CC1	inactive: -9.24%
COc1ccc(C(=O)N/C(=C/c2cccnc2)C(=O)N2CCN(C)CC2)cc1OC	inactive: 30.7%
Cc1cc2c(n1-c1ccc(C(=O)NCCc3ccc(Cl)cc3)cc1)CCC(C)C2 (configuration not stated)	inconclusive: -45.2%
Cc1nc(SC(C)C(=O)NCC2CCCO2)c2cc(-c3ccccc3)sc2n1 (configuration not stated)	active: -68.7%
Cc1cc(O)c2ccccc2c1O	inconclusive: -44.1%
Fc1ccccc1Nc1n[nH]c(=S)s1	inconclusive: -56.1%
CCOc1ccccc1CNC(=O)c1cc(-c2ccc(Cl)s2)nc2ccccc12	inactive: -9.36%
Cc1ccc(S(=O)(=O)Nc2ccccc2/C=N/c2nc3ccccc3n2C)cc1	inconclusive: -44.3%
Cc1ccc(-c2nc(CS(=O)(=O)CC(=O)N3CCc4ccccc4C3)c(C)o2)cc1	inconclusive: -51.5%
COc1cccc(N2CCN(C(=O)c3cccc(-n4c(C)nc5cccnc54)c3)CC2)c1	inconclusive: -43.7%
CC1CCc2c(sc3nc(-c4cc5cc(Br)ccc5oc4=O)[nH]c(=O)c23)C1 (configuration not stated)	inactive: 5.45%
Cc1ccc2nc(N3CCC(C(=O)N4CCN(c5cccc(C)c5C)CC4)CC3)[nH]c2c1	inconclusive: -44.9%
O=C(Nc1nnc(S(=O)(=O)N2CCCC2)s1)c1cccc([N+](=O)[O-])c1	inactive: -21.1%
Cc1cc(=O)[nH]c2nnc(SCC(=O)Nc3ccc(OC(F)(F)F)cc3)n12	inactive: 5.5%
O=C(CSC1=NCCN1)NC(c1ccccc1)c1ccccc1	inconclusive: -46.5%
CC1=NN(c2ccc(C(=O)O)cc2)C(=O)/C1=C\c1ccc(OC(=O)c2cccs2)cc1	inconclusive: -50.1%
C/C=C/c1ccc(OCC(=O)Nc2cc(OC)c(OC)c(OC)c2)c(OC)c1	inconclusive: -41.5%
Cc1ccc(C)c(NC(=O)C2CCCN(S(=O)(=O)c3c(C)noc3/C=C/N(C)C)C2)c1 (configuration not stated)	inconclusive: -42.8%
COc1ccccc1-n1c(=O)c(C#N)c(-c2ccc([N+](=O)[O-])cc2)c2cc(C(=O)c3cc(F)ccc3O)cnc21	inactive: 4.44%

Structure (SMILES)	activity change, negative = inhibition
O=C(CCSCCC(=O)NN=Cc1ccccc1O)NN=Cc1ccccc1O	inconclusive: -48%
Cc1ccc(NC2=CC(c3ccccc3F)N(c3ccc(C)cc3)C2=O)cc1 (configuration not stated)	inconclusive: -47.2%
NS(=O)(=O)c1ccc(OC(=O)CNC(=O)OCc2ccccc2)cc1	inactive: -7.1%
O=c1[nH]c(=O)n([C@H]2O[C@H](CO)[C@@H](O)[C@@H]2O)cc1/C=C\Br	inactive: 5.11%
Cc1[nH]n(-c2ccccc2)c(=O)c1/C=C1\C=NN=C1c1ccccc1	active: -110%
Cc1cccc(C(=O)Nc2ccc(-c3nc4ccccc4s3)cc2Cl)c1	inactive: -11%
CCOCCn1ccc2c(OCC(=O)Nc3ccccc3OC)cccc2c1=O	inconclusive: -46.4%
COc1cc(C)c(C(=O)CC(=O)c2c(C)cc(OC)cc2C)c(C)c1	active: -65.7%
O=C(Nc1ccc(Cl)c(Cl)c1)c1ccc2c(c1)OCO2	inconclusive: -42.9%
COc1ccc(-n2cc(CNC3CCN(C)CC3)c(-c3cccc(F)c3)n2)cc1	inconclusive: -55.1%
COc1ccc2c(c1)CC(N1CCN(C)CC1)c1cc(OC)ccc1S2 (configuration not stated)	active: -115%
Cc1ccccc1OCC(=O)Nc1ccccc1N1CCC(C)CC1	inconclusive: -48.6%
COc1ccc(C)c2sc(N(CCCN(C)C)C(=O)c3ccc4c(c3)OCCO4)nc12	inconclusive: -50.6%
Oc1cccc(C(Nc2ccccn2)c2ccc3cccnc3c2O)c1Cl (configuration not stated)	inconclusive: -45.7%
CCOCCCNC(=O)C(c1ccc(OC)cc1)N(Cc1cccs1)C(=O)c1ccc(NC(C)=O)cc1 (configuration not stated)	inactive: -18.3%
CCOC(=O)c1c(C)[nH]c(CCC(=O)NCCCN2CCN(c3cccc(Cl)c3)CC2)c1C	inconclusive: -42.2%
CC1(C)CC(=O)C/C(=N\NC(=O)C2CC2c2ccccc2)C1 (configuration not stated)	inactive: -3.19%
Nc1nonc1-n1nnc(C(=O)N/N=C/c2ccc(Br)cc2)c1-c1ccc2c(c1)OCO2	inconclusive: -47.4%
CCOC(=O)c1sc(NCCNc2nc(C)c(C(=O)OCC)s2)nc1C	inactive: -2.86%

Reference: PubChem BioAssay AID1259400 (National Center for Advancing Translational Sciences (NCATS), 2018)
